The results in this text go back to publication PMC6863843.

Results are given in words; binding and its absence hold for the method and conditions named. In cells and extracts the contact can be indirect. Some results given as binding are weak or reduced against the parent protein; the word gives no strength. Where a sequence is shown, tags or fusion partners need not be part of it.

Sequences and labels used below:
B1: HA-tagged human Slitrk2 wild type (pDisplay-HA-hSlitrk2) (protein, UniProt Q9H156 22-845)
chain: RKTAKDICKIRCLCEEKENVLNINCENKGFTTVSLLQPPQYRIYQLFLNGNLLTRLYPNEFVNYSNAVTLHLGNNGLQEIRTGAFSGLKTLKRLHLNNNKLEILREDTFLGLESLEYLQADYNYISAIEAGAFSKLNKLKVLILNDNLLLSLPSNVFRFVLLTHLDLRGNRLKVMPFAGVLEHIGGIMEIQLEENPWNCTCDLLPLKAWLDTITVFVGEIVCETPFRLHGKDVTQLTRQDLCPRKSASDSSQRGSHADTHVQRLSPTMNPALNPTRAPKASRPPKMRNRPTPRVTVSKDRQSFGPIMVYQTKSPVPLTCPSSCVCTSQSSDNGLNVNCQERKFTNISDLQPKPTSPKKLYLTGNYLQTVYKNDLLEYSSLDLLHLGNNRIAVIQEGAFTNLTSLRRLYLNGNYLEVLYPSMFDGLQSLQYLYLEYNVIKEIKPLTFDALINLQLLFLNNNLLRSLPDNIFGGTALTRLNLRNNHFSHLPVKGVLDQLPAFIQIDLQENPWDCTCDIMGLKDWTEHANSPVIINEVTCESPAKHAGEILKFLGREAICPDSPNLSDGTVLSMNHNTDTPRSLSVSPSSYPELHTEVPLSVLILGLLVVFILSVCFGAGLFVFVLKRRKGVPSVPRNTNNLDVSSFQLQYGSYNTETHDKTDGHVYNYIPPPVGQMCQNPIYMQKEGDPVAYYRNLQEFSYSNLEEKKEEPATPAYTISATELLEKQATPREPELLYQNIAERVKELPSAGLVHYNFCTLPKRQFAPSYESRRQNQDRINKTVLYGTPRKCFVGQSKPNHPLLQAKPQSEPDYLEVLEKQTAISQL
B2: HA-tagged human Slitrk2 ΔPBM (pDisplay-HA-hSlitrk2 ΔPBM) (domain or fragment, UniProt Q9H156 22-841)
chain: RKTAKDICKIRCLCEEKENVLNINCENKGFTTVSLLQPPQYRIYQLFLNGNLLTRLYPNEFVNYSNAVTLHLGNNGLQEIRTGAFSGLKTLKRLHLNNNKLEILREDTFLGLESLEYLQADYNYISAIEAGAFSKLNKLKVLILNDNLLLSLPSNVFRFVLLTHLDLRGNRLKVMPFAGVLEHIGGIMEIQLEENPWNCTCDLLPLKAWLDTITVFVGEIVCETPFRLHGKDVTQLTRQDLCPRKSASDSSQRGSHADTHVQRLSPTMNPALNPTRAPKASRPPKMRNRPTPRVTVSKDRQSFGPIMVYQTKSPVPLTCPSSCVCTSQSSDNGLNVNCQERKFTNISDLQPKPTSPKKLYLTGNYLQTVYKNDLLEYSSLDLLHLGNNRIAVIQEGAFTNLTSLRRLYLNGNYLEVLYPSMFDGLQSLQYLYLEYNVIKEIKPLTFDALINLQLLFLNNNLLRSLPDNIFGGTALTRLNLRNNHFSHLPVKGVLDQLPAFIQIDLQENPWDCTCDIMGLKDWTEHANSPVIINEVTCESPAKHAGEILKFLGREAICPDSPNLSDGTVLSMNHNTDTPRSLSVSPSSYPELHTEVPLSVLILGLLVVFILSVCFGAGLFVFVLKRRKGVPSVPRNTNNLDVSSFQLQYGSYNTETHDKTDGHVYNYIPPPVGQMCQNPIYMQKEGDPVAYYRNLQEFSYSNLEEKKEEPATPAYTISATELLEKQATPREPELLYQNIAERVKELPSAGLVHYNFCTLPKRQFAPSYESRRQNQDRINKTVLYGTPRKCFVGQSKPNHPLLQAKPQSEPDYLEVLEKQTA
B3: HA-tagged human Slitrk1 (pDisplay-HA-hSlitrk1) (protein, UniProt Q96PX8 18-696)
chain: NVTGDVCKEKICSCNEIEGDLHVDCEKKGFTSLQRFTAPTSQFYHLFLHGNSLTRLFPNEFANFYNAVSLHMENNGLHEIVPGAFLGLQLVKRLHINNNKIKSFRKQTFLGLDDLEYLQADFNLLRDIDPGAFQDLNKLEVLILNDNLISTLPANVFQYVPITHLDLRGNRLKTLPYEEVLEQIPGIAEILLEDNPWDCTCDLLSLKEWLENIPKNALIGRVVCEAPTRLQGKDLNETTEQDLCPLKNRVDSSLPAPPAQEETFAPGPLPTPFKTNGQEDHATPGSAPNGGTKIPGNWQIKIRPTAAIATGSSRNKPLANSLPCPGGCSCDHIPGSGLKMNCNNRNVSSLADLKPKLSNVQELFLRDNKIHSIRKSHFVDYKNLILLDLGNNNIATVENNTFKNLLDLRWLYMDSNYLDTLSREKFAGLQNLEYLNVEYNAIQLILPGTFNAMPKLRILILNNNLLRSLPVDVFAGVSLSKLSLHNNYFMYLPVAGVLDQLTSIIQIDLHGNPWECSCTIVPFKQWAERLGSEVLMSDLKCETPVNFFRKDFMLLSNDEICPQLYARISPTLTSHSKNSTGLAETGTHSNSYLDTSRVSISVLVPGLLLVFVTSAFTVVGMLVFILRNRKRSKRRDANSSASEINSLQTVCDSSYWHNGPYNADGAHRVYDCGSHSLSD
B4: HA-tagged human Slitrk5 (pDisplay-HA-hSlitrk5) (protein, UniProt O94991 41-958)
chain: IDYYGEICDNACPCEEKDGILTVSCENRGIISLSEISPPRFPIYHLLLSGNLLNRLYPNEFVNYTGASILHLGSNVIQDIETGAFHGLRGLRRLHLNNNKLELLRDDTFLGLENLEYLQVDYNYISVIEPNAFGKLHLLQVLILNDNLLSSLPNNLFRFVPLTHLDLRGNRLKLLPYVGLLQHMDKVVELQLEENPWNCSCELISLKDWLDSISYSALVGDVVCETPFRLHGRDLDEVSKQELCPRRLISDYEMRPQTPLSTTGYLHTTPASVNSVATSSSAVYKPPLKPPKGTRQPNKPRVRPTSRQPSKDLGYSNYGPSIAYQTKSPVPLECPTACSCNLQISDLGLNVNCQERKIESIAELQPKPYNPKKMYLTENYIAVVRRTDFLEATGLDLLHLGNNRISMIQDRAFGDLTNLRRLYLNGNRIERLSPELFYGLQSLQYLFLQYNLIREIQSGTFDPVPNLQLLFLNNNLLQAMPSGVFSGLTLLRLNLRSNHFTSLPVSGVLDQLKSLIQIDLHDNPWDCTCDIVGMKLWVEQLKVGVLVDEVICKAPKKFAETDMRSIKSELLCPDYSDVVVSTPTPSSIQVPARTSAVTPAVRLNSTGAPASLGAGGGASSVPLSVLILSLLLVFIMSVFVAAGLFVLVMKRRKKNQSDHTSTNNSDVSSFNMQYSVYGGGGGTGGHPHAHVHHRGPALPKVKTPAGHVYEYIPHPLGHMCKNPIYRSREGNSVEDYKDLHELKVTYSSNHHLQQQQQPPPPPQQPQQQPPPQLQLQPGEEERRESHHLRSPAYSVSTIEPREDLLSPVQDADRFYRGILEPDKHCSTTPAGNSLPEYPKFPCSPAAYTFSPNYDLRRPHQYLHPGAGDSRLREPVLYSPPSAVFVEPNRNEYLELKAKLNVEPDYLEVLEKQTTFSQF
B5: HA-tagged human Slitrk3 (pDisplay-HA-hSlitrk3) (protein, UniProt O94933 27-977)
chain: WTTPIPLIEDSEEIDEPCFDPCYCEVKESLFHIHCDSKGFTNISQITEFWSRPFKLYLQRNSMRKLYTNSFLHLNNAVSINLGNNALQDIQTGAFNGLKILKRLYLHENKLDVFRNDTFLGLESLEYLQADYNVIKRIESGAFRNLSKLRVLILNDNLIPMLPTNLFKAVSLTHLDLRGNRLKVLFYRGMLDHIGRSLMELQLEENPWNCTCEIVQLKSWLERIPYTALVGDITCETPFHFHGKDLREIRKTELCPLLSDSEVEASLGIPHSSSSKENAWPTKPSSMLSSVHFTASSVEYKSSNKQPKPTKQPRTPRPPSTSQALYPGPNQPPIAPYQTRPPIPIICPTGCTCNLHINDLGLTVNCKERGFNNISELLPRPLNAKKLYLSSNLIQKIYRSDFWNFSSLDLLHLGNNRISYVQDGAFINLPNLKSLFLNGNDIEKLTPGMFRGLQSLHYLYFEFNVIREIQPAAFSLMPNLKLLFLNNNLLRTLPTDAFAGTSLARLNLRKNYFLYLPVAGVLEHLNAIVQIDLNENPWDCTCDLVPFKQWIETISSVSVVGDVLCRSPENLTHRDVRTIELEVLCPEMLHVAPAGESPAQPGDSHLIGAPTSASPYEFSPPGGPVPLSVLILSLLVLFFSAVFVAAGLFAYVLRRRRKKLPFRSKRQEGVDLTGIQMQCHRLFEDGGGGGGGSGGGGRPTLSSPEKAPPVGHVYEYIPHPVTQMCNNPIYKPREEEEVAVSSAQEAGSAERGGPGTQPPGMGEALLGSEQFAETPKENHSNYRTLLEKEKEWALAVSSSQLNTIVTVNHHHPHHPAVGGVSGVVGGTGGDLAGFRHHEKNGGVVLFPPGGGCGSGSMLLDRERPQPAPCTVGFVDCLYGTVPKLKELHVHPPGMQYPDLQQDARLKETLLFSAGKGFTDHQTQKSDYLELRAKLQTKPDYLEVLEKTTYRF
B6: HA-tagged human Slitrk4 (pDisplay-HA-hSlitrk4) (protein, UniProt Q8IW52 19-837)
chain: DSDISVEICNVCSCVSVENVLYVNCEKVSVYRPNQLKPPWSNFYHLNFQNNFLNILYPNTFLNFSHAVSLHLGNNKLQNIEGGAFLGLSALKQLHLNNNELKILRADTFLGIENLEYLQADYNLIKYIERGAFNKLHKLKVLILNDNLISFLPDNIFRFASLTHLDIRGNRIQKLPYIGVLEHIGRVVELQLEDNPWNCSCDLLPLKAWLENMPYNIYIGEAICETPSDLYGRLLKETNKQELCPMGTGSDFDVRILPPSQLENGYTTPNGHTTQTSLHRLVTKPPKTTNPSKISGIVAGKALSNRNLSQIVSYQTRVPPLTPCPAPCFCKTHPSDLGLSVNCQEKNIQSMSELIPKPLNAKKLHVNGNSIKDVDVSDFTDFEGLDLLHLGSNQITVIKGDVFHNLTNLRRLYLNGNQIERLYPEIFSGLHNLQYLYLEYNLIKEISAGTFDSMPNLQLLYLNNNLLKSLPVYIFSGAPLARLNLRNNKFMYLPVSGVLDQLQSLTQIDLEGNPWDCTCDLVALKLWVEKLSDGIVVKELKCETPVQFANIELKSLKNEILCPKLLNKPSAPFTSPAPAITFTTPLGPIRSPPGGPVPLSILILSILVVLILTVFVAFCLLVFVLRRNKKPTVKHEGLGNPDCGSMQLQLRKHDHKTNKKDGLSTEAFIPQTIEQMSKSHTCGLKESETGFMFSDPPGQKVVMRNVADKEKDLLHVDTRKRLSTIDELDELFPSRDSNVFIQNFLESKKEYNSIGVSGFEIRYPEKQPDKKSKKSLIGGNHSKIVVEQRKSEYFELKAKLQSSPDYLQVLEEQTALNKI

The target of one assay is EGFP-tagged Shank3a (pEGFP-C1-mShank3a) (mouse) (UniProt Q4ACU6). Nature of the assay: co-IP; HEK293T cells transfected with the indicated plasmids, 48 h; lysis in 20 mM Tris pH 7.4, 1.0% Triton X-100, 0.1% SDS, 150 mM NaCl, 10% glycerol; 1 μg antibody overnight at 4 °C, protein A-Sepharose; immunoblot; input 5%. For orientation: A western blot detects proteins with antibodies after separation by electrophoresis.
With B1, the binding result is “binds”.

For B2, the binding entry is “no binding”.

B3: the binding result is listed as “no binding”.

As to B4, the binding result is recorded as “no binding”.

For B5, the binding entry is listed as “no binding”.

Consider B6, for which the binding entry was “no binding”.

The next assay has as its target T1, Shank3a PDZ domain (pEGFP-C1-Shank3a PDZ), aa 556-663 (mouse) (UniProt Q4ACU6).
T1 sequence: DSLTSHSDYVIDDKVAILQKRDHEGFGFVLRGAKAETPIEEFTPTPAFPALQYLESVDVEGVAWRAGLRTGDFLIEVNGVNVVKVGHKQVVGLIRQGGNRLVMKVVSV
The description is as above.
With B1, the binding entry was “binds”.
